“And” between values parts separate entries of the source, which are not always exact repeats. Equal entries are not always repeated. Over roughly 5,300 compounds, “PER2::LUC luminescence relative to vehicle control” has its median near 0.96; the highest 2% begin near 1.3. The list shows a part of the results.
System: mPer2Luc MEF
Experiment: PER2::LUC luminescence relative to vehicle control (fold of vehicle); higher = higher PER2::LUC reporter signal
Conditions: 10 µM
Summary of the method: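 Mouse embryonic fibroblasts carrying the mPer2Luc reporter were seeded at ~3000 cells per well in 384-well plates, 48 h before compounds from commercial libraries were added at 10 μM. Cells were grown in DMEM with 10% FBS at 37 °C and 5% CO2. Luminescence was read with the ONE-Glo luciferase assay system 24 h and 30 h after treatment, followed by an alamarBlue viability assay. The value is PER2::LUC luminescence as fold of vehicle control.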

SMILES | PER2::LUC luminescence (time after treatment 24 h) | PER2::LUC luminescence (time after treatment 30 h)
COC(=O)C1=C(C)NC(C)=C(C(=O)OCCN(C)Cc2ccccc2)C1c1cccc([N+](=O)[O-])c1 (stereo not drawn) | 1.07 | 0.867
CCCC(=O)[O-].[Na+] | 1.05 and 1.08 | 0.969 and 0.827
C/C=C(/C)C(=O)O[C@H]1[C@H](OC(C)=O)[C@@]2(CO)C(CC1(C)C)C1=CCC3[C@@]4(C)CCC(O[C@@H]5O[C@H](C(=O)O)[C@@H](O[C@@H]6O[C@H](CO)[C@@H](O)[C@H](O)[C@H]6O)[C@H](O)[C@H]5O[C@@H]5O[C@H](CO)[C@@H](O)[C@H](O)[C@H]5O)[C@](C)(CO)C4CC[C@@]3(C)[C@]1(C)C[C@H]2O.C/C=C(\C)C(=O)O[C@H]1[C@H](OC(C)=O)[C@@]2(CO)C(CC1(C)C)C1=CCC3[C@@]4(C)CCC(O[C@@H]5O[C@H](C(=O)O)[C@@H](O[C@@H]6O[C@H](CO)[C@@H](O)[C@H](O)[C@H]6O)[C@H](O)[C@H]5O[C@@H]5O[C@H](CO)[C@@H](O)[C@H](O)[C@H]5O)[C@](C)(CO)C4CC[C@@]3(C)[C@]1(C)C[C@H]2O (stereo partly drawn) | 0.817 | 0.802
COc1ccc([C@@H]2OC[C@@H]3[C@H]2CO[C@H]3c2ccc(OC)c(OC)c2)cc1OC | 1.05 | 1.07
CC(C)=CCc1c2c(c3occ(-c4ccc(O)cc4)c(=O)c3c1O)C=CC(C)(C)O2 | 1 | 0.976
Cc1cc(-c2ccc(CC(=O)Nc3ccc(-c4cccnc4)cc3)cc2)ccn1 | 0.824 | 0.839
CN1CCN(c2c(F)cc3c(=O)c(C(=O)O)cn4c3c2SCC4)CC1 | 0.874 | 0.935
COc1ccc(C2CC(c3ccccc3)=NN2c2ccc(S(N)(=O)=O)cc2)cc1 (stereo not drawn) | 0.907 | 0.9
CC(=O)N1CCN(C)CC1 | 0.932 | 1.01
CNCc1cc(-c2ccccc2F)n(S(=O)(=O)c2cccnc2)c1 | 0.922 | 0.955
Cn1c2ncnc-2c(O)n(C)c1=O | 1.14 | 1.18
Cc1ccccc1C(OCCN(C)C)c1ccccc1 (stereo not drawn) | 0.97 and 0.768 | 0.937 and 0.673
NCCNS(=O)(=O)c1cccc2c(Cl)cccc12 | 1.15 | 0.684
Cc1nn(C)c2c1C(c1ccc(C(F)(F)F)cc1)C(C#N)=C(N)O2 (stereo not drawn) | 1.09 | 0.946
CC(C)NCC(O)c1ccc(O)c(O)c1 (single isomer, unassigned; (-)) | 0.989 | 0.994
O=C1C(O)=C([C@H]2CC[C@H](c3ccc(Cl)cc3)CC2)C(=O)c2ccccc21 | 0.783 | 0.946
O=C(O)CNC(=O)c1nc(Cl)c2ccccc2c1O | 1.01 | 0.941
COc1cc(Nc2nc3c(s2)CCCC3c2ccc(F)cc2)ccc1-n1cnc(C)c1 (stereo not drawn) | 1.05 | 1.02
C[C@@H]1CC[C@@]23CCC4(C)[C@@](C=CC5[C@@]6(C)CCC(=O)C(C)(C)C6CC[C@]54C)(OC2=O)C3[C@H]1C (stereo partly drawn) | 1.13 | 1.03
NC(=O)NC1NC(=O)NC1=O (stereo not drawn) | 1.22 | 1.09
CCOCc1nc2c(N)nc3ccccc3c2n1CC(C)(C)O | 0.909 | 0.877

SMILES | PER2::LUC luminescence (time after treatment 24 h) | PER2::LUC luminescence (time after treatment 30 h)
CN(C)CCOC(c1ccc(Cl)cc1)c1ccccn1 (stereo not drawn) | 0.834 | 0.853
O=C1CCc2ccc(OCCCCN3CCN(c4cccc(Cl)c4Cl)CC3)cc2N1 | 0.834 | 0.887
COc1c2ccoc2cc2oc(=O)ccc12 | 0.819 | 0.811
CCCCCCCCCCCC1=C(O)C(=O)C=C(O)C1=O | 1.01 | 0.88
NCCCC(N)(C(=O)O)C(F)F (stereo not drawn) | 1.07 | 0.949
CCC(Sc1nnc2c(n1)[nH]c1ccccc12)C(=O)N1c2ccccc2Sc2ccccc21 (stereo not drawn) | 0.975 | 1.07
CC1(C)CC[C@]2(C(=O)O)CC[C@]3(C)C(=CCC4[C@@]5(C)CC[C@@H](O)C(C)(C)C5CC[C@]43C)C2C1 (stereo partly drawn) | 0.996 | 0.939
C=C[C@@H]1C[C@]1(NC(=O)[C@@H]1C[C@@H]2CN1C(=O)[C@H](C(C)(C)C)NC(=O)O[C@@H]1C[C@H]1CCCCCc1nc3ccc(OC)cc3nc1O2)C(=O)NS(=O)(=O)C1CC1 | 1.23 | 1.33
CCN(CC)CCOc1ccc(C(=C(Cl)c2ccccc2)c2ccccc2)cc1 | 0.934 and 0.704 | 1.73 and 0.773
CC(C)=CCC/C(C)=C/CC/C(C)=C/CSc1ccccc1C(=O)O | 1.13 | 1.1
COc1ccc2c(c1)CC[C@@H]1[C@@H]2CC[C@]2(C)[C@@H](NCCCCCCN3C(=O)CCC3=O)CC[C@@H]12 | 0.769 | 0.668
CCCCCOC(=O)Nc1nc(=O)n([C@@H]2O[C@H](C)[C@@H](O)[C@H]2O)cc1F | 1.06 | 0.877
CCCCNc1ccc(C(=O)OCCN(C)C)cc1 | 1.04 | 0.965
COc1ccc(NC(=O)c2ccc(-c3ccc(-c4noc(C)n4)cc3C)cc2)cc1N1CCN(C)CC1 | 0.555 | 0.523
CN1CCOC(c2ccccc2)c2ccccc2C1 (stereo not drawn) | 1.02 and 0.878 | 1.02 and 0.749
N=C(N)NCCCCN | 0.91 | 0.801
COc1ccc(N2CCOCC2)c2sc(NC(=O)N3CCC(C)(O)CC3)nc12 | 0.925 | 0.991
C[C@H](CSC(=O)c1ccccc1)C(=O)N1C[C@@H](Sc2ccccc2)C[C@H]1C(=O)O | 1.03 | 0.959
CCc1cc(-c2n[nH]c(C)c2-c2ccc3c(c2)OCCO3)c(O)cc1O | 1.11 | 1.12
COc1cc2ncnc(Oc3ccc(CC(=O)Nc4cnn(C(C)C)c4)cc3)c2cc1OC | 0.767 | 0.639
CC(C)NC[C@H](O)COc1cccc2[nH]ccc12 | 1.06 and 0.903 | 0.838 and 0.849

SMILES | PER2::LUC luminescence (time after treatment 24 h) | PER2::LUC luminescence (time after treatment 30 h)
CCc1ccc2c(O)c3c(cc2c1C(=O)OC)C(=O)c1c(O)ccc(O)c1C3=O | 0.886 | 0.948
O=C(Cc1ccccc1)Nc1nc2ccc(Cl)cc2c2nc(-c3ccco3)nn12 | 0.998 | 0.984
O=C(O)COCCN1CCN([C@H](c2ccccc2)c2ccc(Cl)cc2)CC1 | 0.971 and 0.778 | 0.903 and 0.84
Cc1cc(-c2ncc(CC(=O)Nc3ccc(-c4cnccn4)cn3)cc2C)ccn1 | 0.781 | 0.903
Cc1cnc(C(=O)NCCc2ccc(S(=O)(=O)NC(=O)NC3CCCCC3)cc2)cn1 | 0.906 | 1.14
COc1ccc2c(O[C@@H]3C[C@H]4C(=O)N[C@]5(C(=O)NS(=O)(=O)C6CC6)C[C@H]5/C=C\CCCCN(C)C(=O)[C@@H]4C3)cc(-c3nc(C(C)C)cs3)nc2c1C | 1.04 | 1.02
FC(F)(F)c1ccc(CNc2ccc(Cc3c[nH]c4ncc(Cl)cc34)cn2)cc1 | 0.83 | 0.83
O=C1[C@H](CC[C@H](O)c2ccc(F)cc2)[C@@H](c2ccc(O)cc2)N1c1ccc(F)cc1 | 0.797 | 0.929
CC(=O)O[C@H]1C[C@@H](OC(C)=O)C(C)(C)[C@@H]2C[C@@H](OC(C)=O)[C@@]3(C)C4=CC(=O)O[C@@H](c5ccoc5)[C@]4(C)CC[C@@H]3[C@@]12C | 0.879 | 0.86
c1cc(-c2cnn3cc(-c4ccc(OCCN5CCCCC5)cc4)cnc23)ccn1 | 0.506 and 0.484 | 0.616 and 0.593
O=S(=O)(O)c1cc(I)c(O)c2ncccc12 | 0.945 | 1.18
N#Cc1nccc(Oc2cccc(-c3ccc(CN)cc3)c2)n1 | 0.994 | 1.14
COc1ccccc1N1CCN(CCCCNC(=O)c2ccc3ccccc3c2)CC1 | 0.883 | 0.811
Nc1ncnc2c1C(=O)N(c1ccc([C@H]3CC[C@H](CC(=O)O)CC3)cc1)CCO2 | 1.07 | 0.74
CCC1NC(=O)c2cc(S(N)(=O)=O)c(Cl)cc2N1 (stereo not drawn) | 0.686 | 0.906
CC(O)(P(=O)(O)O)P(=O)(O)O | 0.929 and 0.971 and 0.927 | 1.04 and 0.95 and 0.987
CC(COc1ccccc1Cc1ccccc1)N1CCCCC1 (stereo not drawn) | 0.794 | 0.87
COC(C)(C)CCCC(C)C/C=C/C(C)=C/C(=O)O (stereo not drawn) | 1.1 | 1.13
O=C1NC(=O)[C@@H](c2cn3c4c(cccc24)CCC3)[C@@H]1c1c[nH]c2ccccc12 | 0.376 | 0.404
COc1ccc(CCNC[C@@H](O)c2ccc(O)cc2)cc1OC | 0.86 | 0.91
Cn1c(=O)c2c(ncn2CCO)n(C)c1=O | 1.26 | 1.19

SMILES | PER2::LUC luminescence (time after treatment 24 h) | PER2::LUC luminescence (time after treatment 30 h)
CCCN1CCN(c2ccc(C(=O)NC3(C(=O)NCC#N)CCCCC3)cc2)CC1 | 0.977 | 0.898
C[C@@]1(c2cc(-c3cncnc3)c(F)cc2F)CCSC(N)=N1 | 0.96 | 1.06
COc1ccc2c(c1)O[C@H]1c3ccc(OC)cc3OC[C@@H]21 | 0.983 | 1.08
C[C@H]1N=C(N(C)C)N=C(N)N1 | 1.1 | 1.05
CC(=O)/C(C)=N/O | 1.28 and 0.838 | 1.11 and 0.875
O=[N+]([O-])c1cc2nc(O)c(O)nc2cc1[N+](=O)[O-] | 0.887 | 1.04
CC(C)NCC(O)c1cc(O)cc(O)c1 (stereo not drawn) | 1.1 and 1.04 and 1.21 | 0.935 and 0.799 and 0.968
CC(C)(CO)Cc1cc(C(C)(C)C)c(O)c(C(C)(C)C)c1 | 1.04 | 1.12
O=C(O)CN(CCN(CC(=O)O)CC(=O)O)CCN(CC(=O)O)CC(=O)O | 1.05 and 0.967 | 0.871 and 0.877
C#CCN(C)CCCOc1ccc(Cl)cc1Cl | 1.23 | 1.37
COc1ccc(-c2cc(=O)c3c(OC)c(OC)c(OC)cc3o2)cc1OC | 0.736 | 0.843
CCCn1cnc2c1c(=O)n(CCCCC(C)=O)c(=O)n2C | 0.982 | 0.876
CCCCCCCCCCCCCCSCC(=O)O | 0.984 | 1.03
COc1ccc(-c2cc(=O)c3c(O)cc(OC)cc3o2)cc1 | 1.29 | 1.46
COc1ccc2[nH]c(C(=O)c3ccccc3)cc2c1 | 0.524 | 0.75
O=C(/C=C/C=C/c1ccc2c(c1)OCO2)N1CCCCC1 | 1.5 | 1.42
O=C(O)C(S)=Cc1c[nH]c2ccc(F)cc12 | 1.09 | 1.03
O=c1c2ccccc2nc2n1CCc1c-2[nH]c2ccccc12 | 1.36 | 1.51
OC[C@H]1O[C@@H](n2cnc3c2N=CNC[C@H]3O)C[C@@H]1O | 0.983 | 0.951
CN(C)c1ccccc1CN1CCCN(Cc2ccccc2N(C)C)C1c1ccncc1 | 0.511 | 0.808
CCC(=O)OCC(=O)[C@@]1(OC(=O)CC)[C@@H](C)C[C@H]2[C@@H]3CCC4=CC(=O)C=C[C@]4(C)[C@@]3(Cl)[C@@H](O)C[C@@]21C | 0.628 | 0.903

— the supplement of paper PMC9334596
